According to the supplement of paper PMC3334620:
Over roughly 33,000 sequences, “E-score (-0.5 to 0.5)” has its median near -0.035; the highest 2% begin near 0.35. This is one part of the list.

The sequences below were run against T1, Pdr3 (UniProt P33200) (assay: PBM E-score (8-mer binding enrichment) (E-score (-0.5 to 0.5)); higher = stronger / more preferred TF binding; most listed sequences are background and not binding sites). Conditions: protein concentration: 200 nM; construct: GST-full length.
T1 sequence: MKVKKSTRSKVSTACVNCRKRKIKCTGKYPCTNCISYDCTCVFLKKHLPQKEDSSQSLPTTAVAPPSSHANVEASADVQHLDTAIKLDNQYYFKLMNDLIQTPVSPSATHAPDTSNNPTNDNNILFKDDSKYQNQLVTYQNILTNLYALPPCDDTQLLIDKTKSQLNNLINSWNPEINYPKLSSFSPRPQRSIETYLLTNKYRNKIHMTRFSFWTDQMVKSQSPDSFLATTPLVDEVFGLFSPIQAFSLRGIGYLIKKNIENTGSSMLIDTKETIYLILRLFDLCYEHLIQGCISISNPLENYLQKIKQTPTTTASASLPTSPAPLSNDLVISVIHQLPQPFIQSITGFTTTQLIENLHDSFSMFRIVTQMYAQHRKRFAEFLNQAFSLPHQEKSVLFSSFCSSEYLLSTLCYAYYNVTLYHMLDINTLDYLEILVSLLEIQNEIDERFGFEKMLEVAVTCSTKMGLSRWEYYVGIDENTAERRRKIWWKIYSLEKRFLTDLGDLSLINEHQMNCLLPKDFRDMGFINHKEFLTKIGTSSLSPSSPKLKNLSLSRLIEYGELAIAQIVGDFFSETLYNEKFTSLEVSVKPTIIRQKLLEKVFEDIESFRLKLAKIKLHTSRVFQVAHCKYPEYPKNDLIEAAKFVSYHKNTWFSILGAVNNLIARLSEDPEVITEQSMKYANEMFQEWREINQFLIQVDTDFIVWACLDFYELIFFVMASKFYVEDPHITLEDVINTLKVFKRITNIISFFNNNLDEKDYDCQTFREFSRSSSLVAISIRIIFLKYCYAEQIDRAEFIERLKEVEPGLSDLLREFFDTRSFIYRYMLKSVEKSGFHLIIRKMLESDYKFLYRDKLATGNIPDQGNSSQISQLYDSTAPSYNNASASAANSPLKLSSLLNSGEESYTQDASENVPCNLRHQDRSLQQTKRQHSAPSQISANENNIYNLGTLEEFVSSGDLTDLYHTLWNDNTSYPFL
Procedure, shortened: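 Masliner-normalised scans of fluorescent anti-GST signal were the basis for scoring. That signal came from GST-tagged yeast transcription factors applied at about 100-200 nM to double-stranded universal all-10-mer Agilent arrays on fresh or once-stripped slides. Each ungapped eight-base word, pooled with its reverse complement, received an E-score from the Universal PBM Analysis Suite.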

Row | Sequence | PBM E-score
1 | AGCTACTA | -0.00606
2 | GACTTATC | -0.0395
3 | CACTTGAC | -0.156
4 | AGACCCAC | 0.0644
5 | ATTTTAGA | -0.0538
6 | GGTCCAAA | -0.0766
7 | CAGACTTC | -0.196
8 | GCAGACAA | 0.0426
9 | AGCACGCC | 0.0709
10 | AGGAGGTA | -0.18
11 | AGAGAGAT | -5e-05
12 | CCGCTTCA | 0.0778
13 | ATGGGTTA | 0.0293
14 | GGCCCGAA | 0.184
15 | GATCGGGC | 0.142
16 | CCACGAGC | 0.0663
17 | ACTTTTAA | -0.117
18 | AGTTTCCC | 0.0499
19 | CGCGAAGA | 0.233
20 | AGATATGG | 0.0512
21 | AAAGCCAA | -0.081
22 | CCTGTAAA | -0.33
23 | CCCTGAAA | -0.0909
24 | AGGAACGA | -0.1
25 | CCGACTGC | 0.158

Row | Sequence | PBM E-score
26 | ACTCAGCT | -0.101
27 | ATCTGCAA | -0.209
28 | ACTCTCGC | -0.145
29 | ACTGCGGA | 0.3
30 | ACCGCGCT | 0.139
31 | CTTGGTAA | -0.183
32 | CGGTTGGC | 0.161
33 | GGCAGAAC | 0.123
34 | GAATCGTC | 0.0399
35 | ATATTACA | 0.102
36 | AATATAAA | 0.172
37 | AGTCTAGC | -0.15
38 | GACATCCC | 0.3
39 | ATCTTTGG | -0.102
40 | GATCCTAA | -0.233
41 | CCAGAGGG | -0.0841
42 | CTCAACAA | 0.00216
43 | ATTCGAGG | -0.213
44 | AACCATGG | 0.146
45 | AGCCACGG | 0.16
46 | ATGGTAAT | -0.0621
47 | AGATCGTA | -0.304
48 | CGTACCAG | -0.0819
49 | AGCCGTCA | 0.131
50 | TTGGACAA | -0.0877

Row | Sequence | PBM E-score
51 | ATGTACAT | -0.0148
52 | GCGCTTGA | 0.133
53 | ACTGAAGG | -0.0847
54 | AAACCTGA | -0.0373
55 | ACGCACGC | 0.216
56 | CGTAGCCA | -0.267
57 | CAGTGCAG | -0.137
58 | CTAGGTGA | -0.379
59 | AAAGACTC | -0.222
60 | ATATTAGA | -0.0652
61 | GTGTTAAA | -0.19
62 | CCATGCCG | 0.233
63 | GGCAGGTA | 0.0293
64 | CCAAGGTA | -0.119
65 | ACCGGCTA | 0.0457
66 | GCTTGACC | -0.0618
67 | GGAAGCGA | 0.224
68 | AAGGATAA | -0.235
69 | AAAGGAGA | -0.233
70 | AGAAACGC | -0.183
71 | ATGTCCGG | 0.375
72 | GTCTTCCA | -0.258
73 | ACATAATG | 0.0289
74 | ATAATTAC | 0.0827
75 | ACGATAAT | -0.171

Row | Sequence | PBM E-score
76 | ATCCGCAG | 0.316
77 | CGCTATAG | -0.245
78 | GCACGTAA | -0.144
79 | ACAACTAC | 0.0153
80 | GTAGTAAA | -0.0238
81 | GTCTTCAC | -0.181
82 | GGGGCCTA | -0.244
83 | CTATCAAG | -0.175
84 | AGATATAC | -0.0791
85 | AATGGAGG | 0.0106
86 | ACAGGAGG | -0.213
87 | GCGACGGA | 0.374
88 | ATAGAGCC | -0.0296
89 | AAGGACAG | 0.0667
90 | GTTAGGTA | -0.0109
91 | ATATCGTA | 0.00561
92 | CTGCGAAC | -0.337
93 | ACGACCAG | -0.0994
94 | TGTATTAA | -0.0783
95 | ACCTCTAA | -0.154
96 | AGGCTGGG | -0.288
97 | AATACATG | 0.0526
98 | CGATATTC | 0.238
99 | ACGCGCGC | 0.238
100 | AAACCCCA | -0.161

Row | Sequence | PBM E-score
101 | CTATCAGA | -0.12
102 | CTGTGGTC | -0.0567
103 | AGCATTAA | -0.0268
104 | GCAAGAGA | -0.0933
105 | GCTCGTAC | -0.126
106 | GGCGGTTA | 0.0539
107 | ACCGATTC | -0.0118
108 | GAATCATC | 0.0501
109 | CATCTGAA | -0.0255
110 | AGTCAGGC | 0.0885
111 | CGTCGTCA | 0.0586
112 | TCGAACCA | -0.0908
113 | CTGTGATA | -0.18
114 | ATCCGAAT | 0.365
115 | ATAGACTG | -0.188
116 | CGAAACTC | -0.0674
117 | CCGGAACG | 0.475
118 | AAGGATCT | -0.357
119 | AGCAGGAA | -0.0425
120 | GAGGGTCC | 0.0853
121 | AACTCATG | -0.103
122 | AATTGCAG | 0.0317
123 | ACGGCACG | 0.235
124 | CGTATGTA | -0.148
125 | TACTCACA | -0.152

Row | Sequence | PBM E-score
126 | CGAGCGAA | 0.11
127 | CGTCGTAG | 0.0191
128 | TTGCCCAA | -0.0756
129 | GTCGAGAC | 0.101
130 | CCTTGACC | 0.0672
131 | GGCGAGAA | 0.0367
132 | AGTCCGTG | 0.193
133 | CTGAACTA | -0.16
134 | CCTACCTA | -0.29
135 | AAAGCCGA | -0.0155
136 | CAGAGCCC | -0.0899
137 | CCGTGGGA | 0.191
138 | CATGATCC | 0.143
139 | GCGCCGAA | 0.241
140 | ACCCAGCC | -0.185
141 | GGCGGTCA | 0.0167
142 | TAGTTAAA | -0.0289
143 | CATTCTCG | 0.0449
144 | CCATGGGC | 0.0496
145 | GCCGACCC | 0.115
146 | ACTGTTGC | 0.0396
147 | GAGTCAAA | -0.046
148 | AGCTAAGA | -0.166
149 | ACGTCATC | -0.16
150 | CGCCCATA | 0.124

Row | Sequence | PBM E-score
151 | TAGTCAGA | -0.168
152 | GCCGTGTA | 0.0838
153 | ATTGATAC | 0.182
154 | CACATAAA | -0.0348
155 | GGTGTGAC | -0.223
156 | CAACACTC | 0.149
157 | AAATCTCA | -0.0725
158 | TGACCGCA | 0.0167
159 | CAGAATAC | 0.0339
160 | CTCGAAGA | -0.0785
161 | ATCTAGAC | -0.144
162 | GTCTGAGA | -0.189
163 | GACTTCCA | -0.0818
164 | CATCTCAA | -0.163
165 | AGCAAATC | 0.0544
166 | GGAGAGGA | -0.0401
167 | AGGGTCAC | -0.27
168 | CCAATCCG | 0.318
169 | GAGGGTTA | -0.131
170 | TAAATGTA | -0.102
171 | CCCCGCAC | 0.138
172 | AATGTAAC | -0.00273
